# Laboratory results from the supplement of paper PMC8728848.
# The other results are listed elsewhere or left out.
# Assays:
# Test in all cases: glycan array binding signal (z-score within array); higher = stronger binding
# Conditions in all cases: glycan notation: IUPAC condensed, linker removed
# [1] = target: GlcNAc(b1-3)Gal(b1-4)GlcNAc(b1-3)Gal(b1-4)GlcNAc(b1-3)Gal(b1-4)GlcNAc(b1-3)Gal(b1-4)GlcNAc(b1-2)[GlcNAc(b1-3)Gal(b1-4)GlcNAc(b1-3)Gal(b1-4)GlcNAc(b1-3)Gal(b1-4)GlcNAc(b1-3)Gal(b1-4)GlcNAc(b1-6)]Man(a1-6)[GlcNAc(b1-3)Gal(b1-4)GlcNAc(b1-3)Gal(b1-4)GlcNAc(b1-3)Gal(b1-4)GlcNAc(b1-3)Gal(b1-4)GlcNAc(b1-2)Man(a1-3)]Man(b1-4)GlcNAc(b1-4)[Fuc(a1-6)]GlcNAc
# Summary of the method: (§1)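 From the Consortium for Functional Glycomics database, 3228 arrays were curated, keeping only those whose protein sequence was available. Binding is given as a within-array Z-score averaged across arrays sharing a protein sequence and across linkers. Negative Z-scores can be read as non-binding.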
# [2] = target: GlcNAc(b1-3)Gal(b1-4)GlcNAc(b1-3)Gal(b1-4)GlcNAc(b1-3)GalNAc
# Summary of the method: as §1
# [3] = target: GlcNAc(b1-3)Gal(b1-4)GlcNAc(b1-3)GalNAc
# Summary of the method: as §1
# [4] = target: GlcNAc(b1-3)Gal(b1-4)GlcNAc(b1-3)[GlcNAc(b1-3)Gal(b1-4)GlcNAc(b1-3)]GalNAc
# Summary of the method: as §1
# [5] = target: GlcNAc(b1-3)Gal(b1-4)GlcNAc(b1-6)[Gal(b1-3)]GalNAc
# Summary of the method: as §1
# [6] = target: GlcNAc(b1-3)Gal(b1-4)GlcNAc(b1-6)[GlcNAc(b1-3)Gal(b1-3)]GalNAc
# Summary of the method: as §1
# [7] = target: GlcNAc(b1-3)Gal(b1-4)GlcNAc(b1-6)[GlcNAc(b1-3)]Gal(b1-4)GlcNAc
# Summary of the method: as §1
# GlcNAc(b1-3)GalNAc = target: GlcNAc(b1-3)GalNAc
# Summary of the method: as §1
# GlcNAc(b1-3)Man = target: GlcNAc(b1-3)Man
# Summary of the method: as §1
# [8] = target: GlcNAc(b1-3)[GlcNAc(b1-4)][GlcNAc(b1-6)]GlcNAc
# Summary of the method: as §1
# [9] = target: GlcNAc(b1-3)[GlcNAc(b1-6)]Gal(b1-4)GlcNAc
# Summary of the method: as §1
# [10] = target: GlcNAc(b1-3)[GlcNAc(b1-6)]GalNAc
# Summary of the method: as §1
# [11] = target: GlcNAc(b1-4)Gal(b1-4)GlcNAc
# Summary of the method: as §1
# GlcNAc(b1-4)GlcNAc = target: GlcNAc(b1-4)GlcNAc
# Summary of the method: as §1
# [12] = target: GlcNAc(b1-4)GlcNAc(b1-4)GlcNAc
# Summary of the method: as §1
# [13] = target: GlcNAc(b1-4)GlcNAc(b1-4)GlcNAc(b1-4)GlcNAc(b1-4)GlcNAc
# Summary of the method: as §1
# [14] = target: GlcNAc(b1-4)GlcNAc(b1-4)GlcNAc(b1-4)GlcNAc(b1-4)GlcNAc(b1-4)GlcNAc
# Summary of the method: as §1
# [15] = target: GlcNAc(b1-4)[GlcNAc(b1-6)]GalNAc
# Summary of the method: as §1
# [16] = target: GlcNAc(b1-6)Gal(b1-4)GlcNAc
# Summary of the method: as §1
# GlcNAc(b1-6)GalNAc = target: GlcNAc(b1-6)GalNAc
# Summary of the method: as §1
# [17] = target: GlcNAc6S(b1-3)Gal(b1-4)GlcNAc
# Summary of the method: as §1
# Kdn(a2-3)Gal(b1-3)GalNAc = target: Kdn(a2-3)Gal(b1-3)GalNAc
# Summary of the method: as §1
# Kdn(a2-3)Gal(b1-3)GlcNAc = target: Kdn(a2-3)Gal(b1-3)GlcNAc
# Summary of the method: as §1
# Kdn(a2-3)Gal(b1-4)Glc = target: Kdn(a2-3)Gal(b1-4)Glc
# Summary of the method: as §1
# Kdn(a2-3)Gal(b1-4)GlcNAc = target: Kdn(a2-3)Gal(b1-4)GlcNAc
# Summary of the method: as §1
# [18] = target: Kdn(a2-3)Gal(b1-4)[Fuc(a1-3)]GlcNAc
# Summary of the method: as §1
# Kdn(a2-6)Gal(b1-4)GlcNAc = target: Kdn(a2-6)Gal(b1-4)GlcNAc
# Summary of the method: as §1
# [19] = target: Man(a1-2)Man(a1-2)Man(a1-3)Man
# Summary of the method: as §1
# [20] = target: Man(a1-2)Man(a1-2)Man(a1-6)[Man(a1-3)]Man
# Summary of the method: as §1
# Man(a1-2)Man(a1-3)Man = target: Man(a1-2)Man(a1-3)Man
# Summary of the method: as §1
# [21] = target: Man(a1-2)Man(a1-3)[Man(a1-2)Man(a1-6)]Man
# Summary of the method: as §1
# [22] = target: Man(a1-2)Man(a1-3)[Man(a1-2)Man(a1-6)]Man(a1-6)[Man(a1-2)Man(a1-2)Man(a1-3)]Man
# Summary of the method: as §1
# [23] = target: Man(a1-2)Man(a1-3)[Man(a1-2)Man(a1-6)]Man(a1-6)[Man(a1-2)Man(a1-2)Man(a1-3)]Man(b1-4)GlcNAc(b1-4)GlcNAc
# Summary of the method: as §1
# [24] = target: Man(a1-2)Man(a1-3)[Man(a1-6)]Man(a1-6)[Man(a1-2)Man(a1-3)]Man(b1-4)GlcNAc(b1-4)GlcNAc
# Summary of the method: as §1
# [25] = target: Man(a1-2)Man(a1-6)[Man(a1-3)]Man(a1-6)[Man(a1-2)Man(a1-2)Man(a1-3)]Man
# Summary of the method: as §1
# [26] = target: Man(a1-2)Man(a1-6)[Man(a1-3)]Man(a1-6)[Man(a1-2)Man(a1-2)Man(a1-3)]Man(b1-4)GlcNAc(b1-4)GlcNAc
# Summary of the method: as §1
# Man(a1-3)[Man(a1-6)]Man = target: Man(a1-3)[Man(a1-6)]Man
# Summary of the method: as §1
binder,measurement,setting,value
"Als1 (Candida albicans), P46590 (protein) KTITGVFDSFNSLTWSNAANYAFKGPGYPTWNAVLGWSLDGTSANPGDTFTLNMPCVFKYTTSQTSVDLTADGVKYATCQFYSGEEFTTFSTLTCTVNDALKSSIKAFGTVTLPIAFNVGGTGSSTDLEDSKCFTAGTNTVTFNDGDKDISIDVEFEKSTVDPSGYLYASRVMPSLNKVTTLFVAPQCENGYTSGTMGFSSSNGDVAIDCSNIHIGITKGLNDWNYPVSSESFSYTKTCTSNGIQIKYQNVPAGYRPFIDAYISATDVNQYTLAYTNDYTCAGSRLQSKPFTLRWTGYKNSDAGSNGIVIVATTRTVTDSTTAVTTLPFNPSVDKTKTIEILQPIPTTTITTSYVGVTTSYLTKTAPIGETATVIVDVPYHTTTTVTSEWTGTITTTTTRTNPTDSIDTVVVQVP",glycan array binding signal (z-score),[1],0.182
same,glycan array binding signal (z-score),[2],-0.508
same,glycan array binding signal (z-score),[3],0.306
same,glycan array binding signal (z-score),[4],-0.654
same,glycan array binding signal (z-score),[5],0.265
same,glycan array binding signal (z-score),[6],-0.585
same,glycan array binding signal (z-score),[7],1.39
same,glycan array binding signal (z-score),GlcNAc(b1-3)GalNAc,-0.57
same,glycan array binding signal (z-score),GlcNAc(b1-3)Man,-0.282
same,glycan array binding signal (z-score),[8],-0.335
same,glycan array binding signal (z-score),[9],-0.361
same,glycan array binding signal (z-score),[10],-0.201
same,glycan array binding signal (z-score),[11],-0.011
same,glycan array binding signal (z-score),GlcNAc(b1-4)GlcNAc,1.81
same,glycan array binding signal (z-score),[12],-0.547
same,glycan array binding signal (z-score),[13],-0.158
same,glycan array binding signal (z-score),[14],-0.318
same,glycan array binding signal (z-score),[15],-1.29
same,glycan array binding signal (z-score),[16],0.027
same,glycan array binding signal (z-score),GlcNAc(b1-6)GalNAc,-0.026
same,glycan array binding signal (z-score),[17],1.57
same,glycan array binding signal (z-score),Kdn(a2-3)Gal(b1-3)GalNAc,-0.044
same,glycan array binding signal (z-score),Kdn(a2-3)Gal(b1-3)GlcNAc,-0.14
same,glycan array binding signal (z-score),Kdn(a2-3)Gal(b1-4)Glc,1.36
same,glycan array binding signal (z-score),Kdn(a2-3)Gal(b1-4)GlcNAc,-0.488
same,glycan array binding signal (z-score),[18],0.367
same,glycan array binding signal (z-score),Kdn(a2-6)Gal(b1-4)GlcNAc,-0.167
same,glycan array binding signal (z-score),[19],1.79
same,glycan array binding signal (z-score),[20],-0.553
same,glycan array binding signal (z-score),Man(a1-2)Man(a1-3)Man,0.146
same,glycan array binding signal (z-score),[21],-0.8
same,glycan array binding signal (z-score),[22],-1.1
same,glycan array binding signal (z-score),[23],0.673
same,glycan array binding signal (z-score),[24],-0.52
same,glycan array binding signal (z-score),[25],-0.696
same,glycan array binding signal (z-score),[26],-0.578
same,glycan array binding signal (z-score),Man(a1-3)[Man(a1-6)]Man,-0.448
